This series concerns ATP. Nature of the series: switch fluorescence ratio, 500 uM ATP over buffer (Cy3 cluster intensity, sum of 5 cycles each) (fold (ratio)); higher = stronger signal-on switching upon ATP binding; sequences stand for … in TCGTCGGCAGCGTCAGATGTGTATAAGAGACAGTTTTTTTTTTTTTTTTTTTTTTTTT…TC. Particulars: aptamer strand: ATP DNA aptamer (quencher-CACCTGGGGGAGTATTGCGGAGGAAGG + anchor), 100 nM annealed; ATP concentration: 500 uM; one replicate. Summed up: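 Values give the fluorescence ratio for each switch-domain sequence, averaged from per-cluster ratios of summed target-cycle to summed buffer-cycle Cy3 intensity. The Cy3-labelled switching-strand clusters sat on a modified Illumina MiSeq flow-cell, were annealed to 100 nM quencher-labelled ATP aptamer, and were imaged in selection buffer, then after 15 min with 500 uM ATP at 22 °C. Five cycles ran with NaOH stripping and re-annealing between them, and clusters outside 100-1000 RFU were excluded.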

Values marked as one replicate rest on one cluster of the flow cell; about a third of the high ones do not repeat.
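Also: ATP exposure 15 min at 22 °C before imaging.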

On to GTTGCATCTG, for which the switch fluorescence ratio was 0.967. Under GAGGAGAGGG stands 0.97. Take TATTTGGCA: the switch fluorescence ratio was determined as 0.973. For TATCTATTGA, the switch fluorescence ratio was 1.04. Under TCATTTGATC stands 1.06; under GTGCGTCGA, 1; under TACCCCGAGA, 1.03. With TTAGTATCAC, the switch fluorescence ratio was determined as 1.03.

Regarding GAAAGGCCGT, the switch fluorescence ratio was 1.06.

On to GCGTGTTAAC, for which the switch fluorescence ratio is 0.996. Under TTCACCAATC stands 1.04. Under TCAATGATG stands 0.994; under AGAGCAGGCG, 1.18; under TTCATTCGAT, 0.999. In the case of AAGAAGTATT, the switch fluorescence ratio is 0.993. For GTCGTCAGGA, the switch fluorescence ratio came to 1.01.

For ATTTTCAATT, the switch fluorescence ratio is 0.977. Under TTACCGAGGA stands 1.03; under TGGCACAACC, 1.06; under CAGAAATGTG, 1.01.

For AGTTCAGCGT, the switch fluorescence ratio stood at 0.953. Take GGTAATTCGT: the switch fluorescence ratio is 0.978. GACTCCGAGG: the switch fluorescence ratio was determined as 1.16. Consider GGTTTTTATA, for which the switch fluorescence ratio is 0.999. Under CGACTGCCAC stands 1.58; under AATTTGTG, 1.01; under GCATAAGTAG, 0.936.

Regarding AAACGGTGGC, the switch fluorescence ratio turned out to be 1.07.

As for CAGCCTTGAC, the switch fluorescence ratio is 1.1. Under GGCGCAGTCC stands 1.01; under CCTAAAATGT, 1.01; under TCTTAATGAA, 0.962.

On to ATGGTGTCT, for which the switch fluorescence ratio was 1.07.

In the case of GAATGAGCTA, the switch fluorescence ratio was 1.02. In the case of GCGGTGCATG, the switch fluorescence ratio amounted to 1.02.

As for GACTTCTTAA, the switch fluorescence ratio was 0.98.

Turning to GGTTAGTTTT, the switch fluorescence ratio amounted to 0.994.

Consider GACGTCAACG, for which the switch fluorescence ratio stood at 0.969.

Consider CACGGGCGGA, for which the switch fluorescence ratio was 1.32. Under GGTGGTAGGT stands 0.997. GCTATATCAC: the switch fluorescence ratio came out at 1.02. Under GTTTAAATCT stands 1.02; under GTCACTCGGA, 0.986. For the sequence ATGTAAGTGG, the switch fluorescence ratio amounted to 0.952. Under TATGGATACA stands 1; under AAGCTCAGGG, 1.05; under TAGGAATAAT, 0.962.

In the case of CATTTCGTTC, the switch fluorescence ratio was found to be 0.945. Under AGCCCCTTAC stands 2.61; under CCGGCGCTTG, 1.7; under GGGCACAATT, 1.04.

Regarding CTCGCGACGT, the switch fluorescence ratio stood at 1.05. Take ACTCATTCGT: the switch fluorescence ratio was determined as 1.03. Under TTTTCCCCGG stands 1.01. Under ACATCCGGG stands 1.06; under CCAGTAATCA, 1.04. Under GGTCGCCCCA stands 0.989; under GTGTGACACC, 0.954; under CCCATCATGA, 0.979. As for CAGAGGCGGG, the switch fluorescence ratio was found to be 1.02.

On to TCGTAGATTG, for which the switch fluorescence ratio amounted to 0.96. Under CAAATGGCT stands 0.993; under TAAATTTCA, 0.942; under ACCGAGGATT, 1.04. Under AATTTCGTAC stands 1.01; under GATGTCCCGC, 1.13; under CTTCCAGCG, 1.17. Under TCATTATGCG stands 0.961; under TTTCAAATGC, 0.992; under TTATTCTTTG, 0.987. TAAATTACGC: the switch fluorescence ratio worked out at 1.04.

As for CCAGAAGGCC, the switch fluorescence ratio was found to be 1.

In the case of AAATGGGAAC, the switch fluorescence ratio is 1.

Regarding CTGTACTTCA, the switch fluorescence ratio worked out at 1.08. Under ACAGGCTCTT stands 1.05; under CACAAGGAAC, 0.983; under CAGCACAAG, 1.05. As for TACCTTGGAA, the switch fluorescence ratio was found to be 1.06. In the case of TACCCTGAG, the switch fluorescence ratio was 1.13. Under GGTCTGGAGT stands 1.01; under TTTAGGCAAC, 1.06; under TCCGAACGAA, 1.19. Under ACGTTTGGCC stands 0.988; under GGCGAGTTCG, 0.913.

Take AATTGAATTC: the switch fluorescence ratio is 1.02. As for TTCACTGGCC, the switch fluorescence ratio was 1.03. Under TGTTTATTT stands 0.999; under GGCACCAGCG, 1.04.

ATGATAAGTG: the switch fluorescence ratio came out at 1.06. As to GCAATCCTGA, the switch fluorescence ratio was 1.08.

Regarding ACGTTCGTGG, the switch fluorescence ratio stood at 1.04. For the sequence CTGTAGAGAT, the switch fluorescence ratio is 1.04. For GCCCTATAGA, the switch fluorescence ratio stood at 0.996. Turning to CGGCATTGAC, the switch fluorescence ratio turned out to be 1.65. Under GACTATAAAT stands 1.04; under TTCTATTAGC, 0.987.

Consider ACCGACCGAA, for which the switch fluorescence ratio came out at 2.15. Under TCGGAGTATT stands 1.15; under CGAGCTCAGG, 1.97. Under GGGTTCTTTC stands 1.01; under CCGGCATTCG, 1.16. For GACCCCCTA, the switch fluorescence ratio came out at 1.33. With ACCGTCAGGC, the switch fluorescence ratio amounted to 1.02.

Take GGGTTGTTCC: the switch fluorescence ratio is 1.03.

TTTGCGCTTA: the switch fluorescence ratio came to 0.963.

AGTGAAACGG: the switch fluorescence ratio worked out at 1.03. GTTGGAACTA: the switch fluorescence ratio amounted to 1.

For the sequence GTAGTGGGAG, the switch fluorescence ratio is 0.965.

As for AGAGGCAACT, the switch fluorescence ratio was determined as 1.02. Under GTTTTATAGC stands 0.959.

GGAGCCGCGA: the switch fluorescence ratio came out at 1.18. Consider GGATCCGCGC, for which the switch fluorescence ratio amounted to 3.65. Turning to TTTGAACTAT, the switch fluorescence ratio is 1.01. For TCGCGTGCGT, the switch fluorescence ratio stood at 1.08.

In the case of GAGTTTATGA, the switch fluorescence ratio was 0.999. Under TGTTGTTGCT stands 0.955.

Regarding GTATGCCT, the switch fluorescence ratio worked out at 0.964. Under TCCTTCGGCC stands 1.99; under CTCCCTTAGT, 1.13; under TTTTCGGATA, 1.07.
